{
  "source": "PubChem BioAssay AID1347417",
  "about": "(National Center for Advancing Translational Sciences (NCATS), 2020)",
  "note": "In all, about 120,000 compounds went through this assay and about 5,300 (4.4%) were called active. This list was built around the results that the source calls inconclusive (neither active nor inactive); the mix of calls is not that of the screen. Calls come from the whole dose curve; as a rule, active = well fitted inhibition curve with a large enough effect; inconclusive = small, poorly fitted or top-dose-only effect; inactive = no such curve, though single readings can be large or run the other way. A potency beside an inconclusive call is a rough fit, not a confirmed value. Potency is the fitted concentration of half-maximal effect; tags give direction and shape of the fitted curve.",
  "data": [
    {"experiment": "qHTS Primary assay for Inhibitors of Plasmodium falciparum Dd2 growth in vitro; note: nearly all actives have a fitted effect of over 65% in size;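 for activity, negative = inhibition: plate controls were DMSO vehicle for no effect and reference drug for full effect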", "details": "P. falciparum Dd2 growth, SYBR Green, 72 h; activity, negative = inhibition: at 28.9 µM (top of the series) unless noted; series mostly up to 28.9 µM", "summary_of_the_method": "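Infected erythrocytes (Dd2, 0.3% parasitemia, 2.5% hematocrit final) are added to compound in RPMI-1640/Albumax II medium, grown 72 h at 37C in low oxygen, then lysed with saponin/Triton-X containing SYBR Green and read by fluorescence.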", "values": [
      {"smiles": "CSc1ccc(-c2ccc3c(c2)C(=O)N2CC[C@H](NC(=O)c4cccs4)C[C@H]2C(=O)N3)cc1", "Potency": "inconclusive: 1.41 µM [inhibitor, partial curve, poor fit]"},
      {"smiles": "O=c1c2c(CO)c(-c3ccc(F)cc3)nn2ccn1Cc1ccc(Br)cc1", "Potency": "active: 8.91 µM"},
      {"smiles": "O=C1[C@@H]2C[C@@H](O)CN2C2(CN(Cc3cccs3)C2)C(=O)N1Cc1cccc(Cl)c1", "Potency": "inconclusive: 17.8 µM [inhibitor, single point]"},
      {"smiles": "O=C(NC1CCCc2c1[nH]c1ccc(F)cc21)c1ccc2c(c1)OCO2", "note": "(centres undefined)", "activity, negative = inhibition": "inactive: -17.2%"},
      {"smiles": "O=C(NCCCn1ccnc1)c1ccc(-c2ncc3cnc(-c4cccc(F)c4)cn23)cc1", "Potency": "inconclusive: 1.26 µM [inhibitor, full curve]"},
      {"smiles": "CC(=O)c1ccc(NC(=O)N[C@H]2CCN3C(=O)[C@@H](Cc4ccccc4)NC(=O)[C@H]23)cc1", "Potency": "inconclusive: 12.6 µM [inhibitor, single point]"},
      {"smiles": "CCC(=O)C1=C(c2ccc(F)cc2)N(C(=O)CC)n2c(nnc2C2CCCCC2)S1", "Potency": "active: 3.16 µM"},
      {"smiles": "CCOc1ccc(N(C(=O)c2ccc(OC)cc2)S(=O)(=O)c2ccc3c(c2)n(C)c(=O)n3C)cc1", "Potency": "inconclusive: 17.8 µM [inhibitor, single point]"},
      {"smiles": "CN1C[C@@H]2CCCN3CCC[C@@H]([C@H]23)[C@H]1CCCC(=O)NCCN1CCOCC1", "activity, negative = inhibition": "inactive: -24.2%"},
      {"smiles": "O=C(NCc1cccnc1)C1CCN(Cc2cc3ccccc3n2Cc2ccccc2)CC1", "Potency": "active: 11.2 µM"},
      {"smiles": "CC(C)c1ccc(-c2noc(SCC(=O)N(C)c3ccc(F)cc3)n2)cc1", "Potency": "active: 0.794 µM"},
      {"smiles": "Cc1ccc(Cn2c(C3CCN(C(=O)c4sccc4C)CC3)n[nH]c2=O)cc1", "activity, negative = inhibition": "inactive: -15.6%"},
      {"smiles": "O=C(COc1ccc(F)cc1)N1CCCC(Cc2noc(-c3ccccn3)n2)C1", "note": "(centres undefined)", "Potency": "inconclusive: 2.82 µM [inhibitor, partial curve, poor fit]"},
      {"smiles": "CC(=O)N1CCCc2ccc(NC(=O)c3ccc(C(F)(F)F)cc3)cc21", "Potency": "inconclusive: 10 µM [inhibitor, single point]"},
      {"smiles": "O=C1NC2(CN([S+](=O)([O-])c3cccc(C(F)(F)F)c3)C2)Oc2ccccc21", "Potency": "inconclusive: 17.8 µM [inhibitor, single point]"},
      {"smiles": "CN(Cc1cn(-c2ccccc2)nn1)Cc1nnc(-c2ccccc2)o1", "activity, negative = inhibition": "inactive: -13.3%"},
      {"smiles": "N#Cc1ccc(C(=O)N2CCCOCCNC(=O)CC2)cc1", "activity, negative = inhibition": "inactive: -15%"},
      {"smiles": "CCc1ccc(CNC(=O)C2CCN(C(=O)c3ccc(-n4ccc5ccccc54)s3)CC2)cc1", "Potency": "inconclusive: 17.8 µM [inhibitor, single point]"},
      {"smiles": "OC1CC([C@@H](Cc2ccccn2)NC2CCC3(CCNCC3)CC2)C1", "note": "(some centres undefined)", "activity, negative = inhibition": "inactive: -1.91%"},
      {"smiles": "CC(C)CCN1CCCCCCNC(=O)[C@@H]2CCC[C@@H]21", "Potency": "inconclusive: 3.98 µM [inhibitor, single point]"},
      {"smiles": "CC(=O)Nc1cccc(-c2ccnc(-c3nnc(C)n3Cc3ccccc3)c2)c1", "Potency": "inconclusive: 1.41 µM [inhibitor, partial curve]"},
      {"smiles": "CC(=O)N1CCC([C@@H]2CN(C3CCN(CC(C)C)CC3)C[C@H]2CO)CC1", "Potency": "inconclusive: 0.891 µM [inhibitor, full curve, poor fit]"},
      {"smiles": "Cc1ccccc1-c1noc(-c2cc(C(C)C)[nH]n2)n1", "Potency": "inconclusive: 8.91 µM [inhibitor, single point]"},
      {"smiles": "COc1ccc(NC(=O)Cn2c(-c3ccc(F)cc3)nc(C)cc2=O)cc1", "outcome": "inactive"},
      {"smiles": "Cn1cc(-c2cnc3n[nH]c(-c4ccccc4)c3n2)cn1", "Potency": "inconclusive: 5.62 µM [inhibitor, single point]"},
      {"smiles": "Cc1cnn(C2(C(=O)O)CCN(C(=O)c3cnn4cccnc34)CC2)c1", "activity, negative = inhibition": "inactive: -10.7%"},
      {"smiles": "CC(C)CCN(C)Cc1ccc(-c2ccccc2)cc1", "Potency": "active: 8.91 µM"},
      {"smiles": "COc1ccc(NC(=O)N2[C@H]3CC[C@@H]2c2cnc(-c4ccc(F)cc4)nc2C3)cc1OC", "Potency": "inconclusive: 20 µM [inhibitor, single point]"},
      {"smiles": "COC(=O)c1ccc(NC(=O)CSc2nc3c(c(=O)n(C)c(=O)n3C)n2Cc2ccccc2)cc1", "activity, negative = inhibition": "inactive: 25.5%"},
      {"smiles": "COc1cccc(C(=O)NCCn2ccn3nc(-c4ccc(F)cc4)cc3c2=O)c1OC", "outcome": "inactive"},
      {"smiles": "COc1ccc(Cl)cc1NC(=O)c1c(NCc2cccs2)sc2c1CCCC2", "Potency": "inconclusive: 20 µM [inhibitor, single point]"},
      {"smiles": "Cc1cccc(-n2ncc(C(=O)Nc3ccc4c(c3)OCO4)c2C2CCN(C(=O)OC(C)(C)C)CC2)c1", "Potency": "active: 10 µM"},
      {"smiles": "Oc1ccc(NCc2ccccc2OCc2ccccc2Cl)cc1", "Potency": "inconclusive: 10 µM [inhibitor, single point]"},
      {"smiles": "COc1ccc2c(c1)Cc1sc(NC(=O)c3ccc(Cl)cc3)nc1-2", "Potency": "inconclusive: 11.2 µM [inhibitor, single point]"},
      {"smiles": "Cc1cccn2c(=O)c3cc(C(=O)NC(C)c4ccccc4)c(=N)n(CCOCCO)c3nc12", "note": "(centres undefined)", "Potency": "inconclusive: 0.199 µM [inhibitor, full curve, poor fit]"},
      {"smiles": "COc1ccc(CCC(=O)N2CCCCCCNC(=O)CC2)cc1", "activity, negative = inhibition": "inactive: -27.6%"},
      {"smiles": "CC(=O)N1CCC(Cn2cc(Cn3c(C)nc4ccccc43)nn2)CC1", "activity, negative = inhibition": "inactive: -16.1%"},
      {"smiles": "Cc1ccc(-n2c(SCc3ccccc3C)nc3[nH]ncc3c2=O)cc1C", "Potency": "inconclusive: 12.6 µM [inhibitor, single point]"},
      {"smiles": "COc1ncccc1-c1cc2c(nc1-c1ccccc1)nc(C(=O)NCCN(C)C)n2C", "outcome": "inactive [at 44.1 µM]"},
      {"smiles": "Cn1nc(-c2ccc(C(=O)Nc3ccc(OC(F)(F)F)cc3)cc2)c2ccccc2c1=O", "Potency": "inconclusive: 7.08 µM [inhibitor, partial curve, poor fit]"},
      {"smiles": "Cn1nc2cccc(S(=O)(=O)N[C@H](c3ccccn3)C3CC(O)C3)c2n1", "note": "(some centres undefined)", "activity, negative = inhibition": "inactive: 2.83%"},
      {"smiles": "CCN(CC)Cc1nc(C2(O)CCN(Cc3ccccc3C(F)(F)F)CC2)cs1", "Potency": "inconclusive: 14.1 µM [inhibitor, single point]"},
      {"smiles": "O=C(Cc1ccc(Cl)cc1)N1CCC(N2CC3CC(C2)[C@H]2CCCC(=O)N2C3)CC1", "note": "(some centres undefined)", "Potency": "inconclusive: 17.8 µM [inhibitor, single point]"},
      {"smiles": "CCOc1ccccc1N1CC(c2nc3ccccc3n2CCOc2ccccc2OC)CC1=O", "note": "(centres undefined)", "Potency": "inconclusive: 7.94 µM [inhibitor, partial curve, poor fit]"}
    ]}
  ]
}
